According to PMC4336329 (PLoS ONE, 2015):
In all, about 310,000 compounds went through this assay and about 14,000 (4.5%) showed an effect of 50% or more. Effects have a minus sign here. The list shows a part of the results.

molecular target: human ether-à-go-go-related gene (hERG) potassium channel (human, UniProt Q12809); assay: primary screen, population patch clamp on CHO cells stably expressing hERG
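Further: peak tail current of the secondary pulse compared with the same well before compound.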

Chain of human ether-à-go-go-related gene (hERG) potassium channel (Q12809 whole entry, looked up): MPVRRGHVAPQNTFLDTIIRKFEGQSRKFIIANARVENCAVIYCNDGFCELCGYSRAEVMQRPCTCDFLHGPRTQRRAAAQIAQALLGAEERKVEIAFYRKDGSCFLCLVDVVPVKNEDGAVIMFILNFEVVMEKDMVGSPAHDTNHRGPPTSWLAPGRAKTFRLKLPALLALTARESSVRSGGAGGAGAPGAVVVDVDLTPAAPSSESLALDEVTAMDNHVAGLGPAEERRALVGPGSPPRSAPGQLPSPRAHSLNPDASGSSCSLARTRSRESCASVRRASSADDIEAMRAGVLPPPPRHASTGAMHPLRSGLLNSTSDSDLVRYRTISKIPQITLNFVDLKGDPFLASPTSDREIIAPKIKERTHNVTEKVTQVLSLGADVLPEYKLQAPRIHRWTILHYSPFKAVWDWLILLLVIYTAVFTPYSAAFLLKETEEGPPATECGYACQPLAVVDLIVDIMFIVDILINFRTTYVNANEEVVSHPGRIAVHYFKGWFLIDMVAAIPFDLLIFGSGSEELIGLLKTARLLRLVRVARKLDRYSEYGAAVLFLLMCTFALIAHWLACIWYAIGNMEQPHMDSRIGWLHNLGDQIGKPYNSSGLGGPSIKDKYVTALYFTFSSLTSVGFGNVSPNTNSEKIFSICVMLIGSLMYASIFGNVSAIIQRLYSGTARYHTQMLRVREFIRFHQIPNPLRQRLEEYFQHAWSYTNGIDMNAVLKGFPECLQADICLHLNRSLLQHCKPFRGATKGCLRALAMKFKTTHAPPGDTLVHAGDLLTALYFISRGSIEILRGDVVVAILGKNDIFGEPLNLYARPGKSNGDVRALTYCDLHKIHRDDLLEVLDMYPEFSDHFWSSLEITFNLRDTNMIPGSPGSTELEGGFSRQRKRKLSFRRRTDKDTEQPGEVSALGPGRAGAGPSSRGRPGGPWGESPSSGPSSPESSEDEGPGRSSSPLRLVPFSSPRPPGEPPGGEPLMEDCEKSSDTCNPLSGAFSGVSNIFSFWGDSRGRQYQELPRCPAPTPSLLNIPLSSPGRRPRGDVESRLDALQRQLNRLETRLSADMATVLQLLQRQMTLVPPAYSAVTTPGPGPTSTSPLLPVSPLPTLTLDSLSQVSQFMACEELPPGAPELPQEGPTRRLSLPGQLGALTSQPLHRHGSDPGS

Row | Compound | hERG current change (%, negative = inhibition) at 10uM
1 | CC(=O)c1c(C)[nH]c(C(=O)CSc2nc3ccccc3c(=O)n2CCCO)c1C | -8.1%
2 | CC(C)c1ccc(NC(=O)CNCC(c2ccccc2)N(C)C)cc1 (centres unmarked) | -27.6%
3 | C=CCNC(=S)NNC(=O)c1ccc(=O)n(Cc2ccc(Cl)cc2Cl)c1 | 12.3%
4 | CCCOC(=O)Nc1ccc([As](=O)(O)O)cc1NC(=O)OCCC | 24.1%
5 | O=C1C(Cc2ccccc2)C(c2ccccc2)N1c1ccccc1 (centres unmarked) | -13.2%
6 | Cc1ccc(C(=O)N/N=C\c2cccc(OC(=O)c3cccc(F)c3)c2)cn1 | 11.8%
7 | NC(=O)CC(NC(=O)c1ccc(Cl)cc1)C(=O)NCCc1ccc(S(N)(=O)=O)cc1 (centres unmarked) | 18.5%
8 | [N-]=[N+]=NC(c1ccccc1)c1nc2ccccc2[nH]c1=O (centres unmarked) | -7.74%
9 | CCOC(=O)N1CCN(S(=O)(=O)c2cc(Br)cc3c2N(C(C)=O)C(C)C3)CC1 (centres unmarked) | -10.8%
10 | Cc1ccc2c(CC(=O)OC3CCOC3=O)coc2c1 (centres unmarked) | 3.85%
11 | CC(C)(C)CC(=O)NCCCN1CCOCC1 | 5.49%
12 | Cc1cc(C)n(-c2cc(Cl)cc(Cl)c2)c(=O)c1C#N | 9.93%
13 | O=C(CN1CCSC1=O)N1CCN(S(=O)(=O)c2ccccc2)CC1 | -6.49%
14 | CC(C)(C)NC(=O)Cn1cnc2cc([N+](=O)[O-])ccc2c1=O | -1.13%
15 | COc1ccc(C(=O)Nc2cccc(-c3ccc(N4CCOCC4)nn3)c2)cc1OC | 4.55%
16 | COC(=O)Cn1ncn2cccc2c1=O | 9.57%
17 | O=C(NC1CCCCC1)N1CCC(c2nc(-c3ccc(S(=O)(=O)N4CCCC4)cc3)no2)CC1 | -0.594%
18 | O=C(NC1CCCCC1)C(c1ccc(F)cc1)N(Cc1ccco1)C(=O)CN1C(=O)c2ccccc2S1(=O)=O (centres unmarked) | -11.9%
19 | CN(c1ccccc1C(=O)O)S(=O)(=O)c1ccc2[nH]c(=O)[nH]c2c1 | 20.2%

Row | Compound | hERG current change (%, negative = inhibition) at 10uM
20 | CC1CN(C(=S)Nc2ccc(F)cc2F)CC(C)O1 (centres unmarked) | -0.0905%
21 | COc1cccc(CN(CC2CCCO2)S(=O)(=O)c2ccc(S(=O)(=O)N(C)C)cc2)c1 (centres unmarked) | 3.64%
22 | O=C(N/N=C\c1cn(-c2ccccc2)nc1-c1ccccc1)c1ccc2c(c1)OCO2 | 11.3%
23 | Cc1ccc(S(=O)(=O)Nc2c(C)n(C)n(-c3ccccc3)c2=O)c(C)c1 | 9.47%
24 | Cc1ccc(S(=O)(=O)NCCC(=O)N2CC(C)OC(C)C2)cc1C (centres unmarked) | 7.48%
25 | O=C(NCc1ccccn1)C1CC(c2ccccc2O)=NO1 (centres unmarked) | 9.59%
26 | CCOc1ccc(C(=O)NCC(=O)OCc2csc(-c3ccccc3)n2)cc1 | 14.6%
27 | COn1c(-c2ccccc2)nc2c1CCc1c-2no[n+]1[O-] | 10.3%
28 | COc1cc2nc(NC(=O)c3ccc(F)cc3Cl)sc(=O)c2cc1OC | 16.5%
29 | O=C(NC1CCCCCC1)C1c2ccccc2C(=O)N1Cc1cccnc1 (centres unmarked) | -3.16%
30 | CC(Sc1ccc(Cl)cc1)C(=O)NNC(=O)c1ccccc1O (centres unmarked) | 10.7%
31 | CCOc1ccc(OCCN(C)Cc2ccccc2)cc1.O=C(O)C(=O)O | -45.8%
32 | C#CC(CC)(CC)NC(=S)Nc1cccc(C(C)=O)c1 | -14.4%
33 | Cn1c(Cn2c(=O)sc3ccccc32)nnc1SCC(=O)N1CCOCC1 | -3.37%
34 | CCOC(=O)c1c(C)n(-c2ccccc2)c2ccc(O)cc12 | 13.8%
35 | Cc1c(OC(C)C(=O)NCc2ccncc2)ccc2c3c(c(=O)oc12)CCC3 (centres unmarked) | 1.38%
36 | N#Cc1nc(Cc2ccccc2)oc1N1CCCC1 | -11.1%
37 | COc1ccc(C2SCC(C(=O)O)N2C(C)=O)cc1OC (centres unmarked) | -5.53%
38 | CCNC(=S)N1CCc2cc(OC)c(OC)cc2C1COc1ccc(F)cc1 (centres unmarked) | -16.1%

Row | Compound | hERG current change (%, negative = inhibition) at 10uM
39 | O=C(NCc1ccco1)/C(=C/c1ccc([N+](=O)[O-])cc1)NC(=O)c1ccco1 | -69.5%
40 | Cc1nc(CN(C)C(=O)CC2C(=O)NCCN2Cc2ccc(-c3ccccc3)cc2)cs1 (centres unmarked) | -11.8%
41 | Cc1ccc(-n2nc(C)c(C3(O)C(=O)N(C(C)C)c4ccccc43)c2N)cc1 (centres unmarked) | -4.89%
42 | CC1(Br)C2CCCC1C2S(=O)(=O)c1ccccc1 (centres unmarked) | 5.94%
43 | COc1cc(NC(=O)CSCc2cnn(-c3ccccc3)c2-n2cccc2)cc(OC)c1 | 2.87%
44 | CCOc1ccc(CCNC(=O)CCN2C(=O)COc3ccccc32)cc1OCC | 5.33%
45 | NS(=O)(=O)c1ccc(CCNC(=O)Cc2cccs2)cc1 | 12.2%
46 | COc1ccc(/C=C2\Sc3ccc(C(=O)N4CCOCC4)cc3N(C)C2=O)cc1 | -15.3%
47 | Cc1nnc(NCCN2CCOCC2)[nH]c1=O | 9.72%
48 | Cc1cc(=O)oc2c(C)c(OCC(=O)NCC3CCC(C(=O)O)CC3)ccc12 (centres unmarked) | 5%
49 | CCC(C)NC(=O)CCn1c(-c2ccc(F)cc2)cc(C(C)=O)c1C (centres unmarked) | -14%
50 | Cc1ccc(C)c(NCC(=O)NNC(=S)Nc2ccccc2)c1 | 18%
51 | CC(C)Sc1nc(-c2ccccc2)cc(=O)[nH]1 | 5.01%
52 | Cc1[nH]c2ccccc2c1/C=N/NC(=O)CNC(=O)c1ccco1 | 10.8%
53 | CC(=O)c1c(C)[nH]c(C(=O)OCC(=O)N(C)c2c(N)n(Cc3ccccc3)c(=O)[nH]c2=O)c1C | -22.2%
54 | O=C1c2cccnc2C(Nc2cccc(F)c2)N1Cc1ccco1 (centres unmarked) | 27.1%
55 | CCOC(=O)C1(Cc2ccc(OC)cc2)CCN(S(C)(=O)=O)CC1 | 25.6%
56 | CCS(=O)(=O)c1ccc(-c2csc(-c3ccccc3)n2)c(Cl)c1Cl | 18.1%
